Experimental findings from a collection of fitness landscapes (doi:10.1016/j.celrep.2020.107928) are described below.

The chains are these.
B1: Caulobacter ParB omega fusion; a variant is named by its letters at X, in order, B8GW30 (parent)
chain: MESVVVGEPGMSEGRRGLGRGLSALLGEVDAAPAQAPGEQLGGSREAPIEILQRNPDQPRRTFREEDLEDLSNSIREKGVLQPILVRPSPDTAGEYQIVAGERAWRAAQRAGLKTVPIMVRELDDLAVLEIGIIENVQRADLNVLEEALSYKVLMEKFERTQENIAQTIGKSXSHVANXMRLLXLPDEVQSYLVSGELTAXHARAIAAAADPVALAKQIIEGGLSVRETEALARKAPNLSAGKSKGGRPPRVKDTDTQALESDLSSVLGLDVSIDHRGSTGTLTITYATLEQLDDLCNRLTRGI

The full ranking holds about 81,000 sequences; the median of “one-hybrid fitness for binding NBS DNA” is about -0.1, and the highest 2% start at about 0.36. Some of the results follow.

This assay covers variants of B1. Kind of assay: one-hybrid fitness for binding NBS DNA (the Noc-binding site; scaled: cognate 1, non-cognate 0); higher = stronger binding. Conditions: with NBS DNA site. The gist of the method:
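Values were rescaled so that cognate is 1 and non-cognate is 0. Each is a fitness, the log change in a variant's read ratio to wild type from Illumina reads of plasmids before and after selection, with three replicate libraries pooled and variants under 10 reads dropped. Selection of the Caulobacter ParB libraries, four specificity codons randomised, used E. coli USO with a HIS3 reporter, site 19 bp from the promoter, on M9-minus-histidine with 0.1 mM IPTG and 5 mM 3-AT for 48 hours at 37°C.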
Take NGTG: the “one-hybrid fitness for binding NBS DNA” value is at most 0.2.
Turning to VRKN, the “one-hybrid fitness for binding NBS DNA” value is at most 0.2.
Regarding LEFG, the “one-hybrid fitness for binding NBS DNA” value was at most 0.2.
Consider NMGD, for which the “one-hybrid fitness for binding NBS DNA” value is at most 0.2.
In the case of SMKA, the “one-hybrid fitness for binding NBS DNA” value was at most 0.2.
The same measure for RCDW: at most 0.2.
The same measure for QHDW: at most 0.2.
The figure for WYMG is at most 0.2; for IHVR it is at most 0.2.
Take MPFH: the “one-hybrid fitness for binding NBS DNA” value was at most 0.2.
The same measure for QSCK: at most 0.2.
As for VIYD, the “one-hybrid fitness for binding NBS DNA” value is at most 0.2.
On to GMIG, for which the “one-hybrid fitness for binding NBS DNA” value is at most 0.2.
As to YYVT, the “one-hybrid fitness for binding NBS DNA” value is at most 0.2.
With SYRN, the “one-hybrid fitness for binding NBS DNA” value was at most 0.2.
The figure for PRHL is at most 0.2; for CDCG it is at most 0.2; for HRNT it is 0.255.
Consider NMAT, for which the “one-hybrid fitness for binding NBS DNA” value was at most 0.2.
Turning to NHRG, the “one-hybrid fitness for binding NBS DNA” value was at most 0.2.
The figure for QAAE is at most 0.2; for MRTC it is at most 0.2; for TWSL it is at most 0.2.
The same measure for CNDR: at most 0.2; for QFVT: at most 0.2.
In the case of PHNL, the “one-hybrid fitness for binding NBS DNA” value is at most 0.2.
Consider HKQM, for which the “one-hybrid fitness for binding NBS DNA” value was at most 0.2.
In the case of INRT, the “one-hybrid fitness for binding NBS DNA” value was at most 0.2.
For EALT, the “one-hybrid fitness for binding NBS DNA” value is at most 0.2.
On to ALSK, for which the “one-hybrid fitness for binding NBS DNA” value is at most 0.2.
The same measure for QQSE: at most 0.2; for SVGM: at most 0.2; for TGCR: at most 0.2.
The same measure for FWYS: at most 0.2; for HDHI: at most 0.2; for WHHT: at most 0.2.
As to QSSI, the “one-hybrid fitness for binding NBS DNA” value is at most 0.2.
For the variant KALA, the “one-hybrid fitness for binding NBS DNA” value is at most 0.2.
Regarding LYMW, the “one-hybrid fitness for binding NBS DNA” value is at most 0.2.
For the variant SESF, the “one-hybrid fitness for binding NBS DNA” value is at most 0.2.
As to VFHG, the “one-hybrid fitness for binding NBS DNA” value was at most 0.2.
The same measure for QAVT: 0.296.
Regarding RWWN, the “one-hybrid fitness for binding NBS DNA” value was at most 0.2.
Turning to KPRG, the “one-hybrid fitness for binding NBS DNA” value was at most 0.2.
For the variant PLEC, the “one-hybrid fitness for binding NBS DNA” value was at most 0.2.
The figure for PPGW is at most 0.2.
The same measure for YKVR: at most 0.2.
In the case of PWPP, the “one-hybrid fitness for binding NBS DNA” value was at most 0.2.
The figure for ARTE is at most 0.2; for TFAS it is at most 0.2.
As to EVDR, the “one-hybrid fitness for binding NBS DNA” value is at most 0.2.
On to RTYA, for which the “one-hybrid fitness for binding NBS DNA” value amounted to 0.268.
Turning to DSFY, the “one-hybrid fitness for binding NBS DNA” value was at most 0.2.
For AMNW, the “one-hybrid fitness for binding NBS DNA” value was at most 0.2.
As for KVLC, the “one-hybrid fitness for binding NBS DNA” value is at most 0.2.
For the variant MYMA, the “one-hybrid fitness for binding NBS DNA” value is at most 0.2.
Turning to DYMF, the “one-hybrid fitness for binding NBS DNA” value is at most 0.2.
With MVNM, the “one-hybrid fitness for binding NBS DNA” value is at most 0.2.
The same measure for HHSC: at most 0.2; for TAQR: at most 0.2.
In the case of SITW, the “one-hybrid fitness for binding NBS DNA” value was at most 0.2.
The same measure for IKAY: at most 0.2; for TTQK: at most 0.2.
With AFAT, the “one-hybrid fitness for binding NBS DNA” value was at most 0.2.
In the case of NAHT, the “one-hybrid fitness for binding NBS DNA” value was at most 0.2.
Consider RSKN, for which the “one-hybrid fitness for binding NBS DNA” value is at most 0.2.
As for ILEV, the “one-hybrid fitness for binding NBS DNA” value is at most 0.2.
The same measure for SKFV: at most 0.2.
In the case of TILM, the “one-hybrid fitness for binding NBS DNA” value was at most 0.2.
As to SNSQ, the “one-hybrid fitness for binding NBS DNA” value was at most 0.2.
Regarding APFT, the “one-hybrid fitness for binding NBS DNA” value is at most 0.2.
Consider HGTL, for which the “one-hybrid fitness for binding NBS DNA” value is at most 0.2.
For the variant SKCI, the “one-hybrid fitness for binding NBS DNA” value was at most 0.2.
The figure for PKPN is at most 0.2; for SFQS it is at most 0.2.
As to LEWR, the “one-hybrid fitness for binding NBS DNA” value was at most 0.2.
As to PATG, the “one-hybrid fitness for binding NBS DNA” value was at most 0.2.
As to HQRH, the “one-hybrid fitness for binding NBS DNA” value was at most 0.2.
On to SDGL, for which the “one-hybrid fitness for binding NBS DNA” value was at most 0.2.
For the variant YGRK, the “one-hybrid fitness for binding NBS DNA” value is at most 0.2.
The same measure for AEVR: at most 0.2.
Turning to MLKQ, the “one-hybrid fitness for binding NBS DNA” value was at most 0.2.
Take NQTN: the “one-hybrid fitness for binding NBS DNA” value is at most 0.2.
The figure for TDAQ is at most 0.2.
EGYT: the “one-hybrid fitness for binding NBS DNA” value was at most 0.2.
As to KQSC, the “one-hybrid fitness for binding NBS DNA” value is at most 0.2.
As to DSTL, the “one-hybrid fitness for binding NBS DNA” value was at most 0.2.
As for SIYR, the “one-hybrid fitness for binding NBS DNA” value is at most 0.2.
Regarding HDLE, the “one-hybrid fitness for binding NBS DNA” value is at most 0.2.
As for SGVY, the “one-hybrid fitness for binding NBS DNA” value is at most 0.2.
Take GKVG: the “one-hybrid fitness for binding NBS DNA” value was at most 0.2.
Consider TSQT, for which the “one-hybrid fitness for binding NBS DNA” value was at most 0.2.
As to TVYM, the “one-hybrid fitness for binding NBS DNA” value is at most 0.2.
As to RILA, the “one-hybrid fitness for binding NBS DNA” value was at most 0.2.
As to RETL, the “one-hybrid fitness for binding NBS DNA” value was at most 0.2.
As to QCMM, the “one-hybrid fitness for binding NBS DNA” value was at most 0.2.
For APYW, the “one-hybrid fitness for binding NBS DNA” value was at most 0.2.
